Key:
[1] = molecular target: HCMV C-A S225M (Human cytomegalovirus, UniProt P16753, A143V/A209V/C138A/C202A/C84A/C87A/S225M); assay: Time-course inhibitor labeling by intact protein LC/MS, HCMV C-A S225M dimer; format: binding; conditions: DTT quenched
[2] = molecular target: HCMV C-A (Human cytomegalovirus, UniProt P16753, A143V/A209V/C138A/C202A/C84A/C87A); assay: Time-course inhibitor labeling by intact protein LC/MS, HCMV C-A; format: binding; conditions: DTT quenched

O=C(CCl)Cn1nnc(-c2ccccc2)c1COC(=O)NCc1ccccc1 [Compound 43, (1-(3-Chloro-2-oxopropyl)-4-phenyl-1H-1,2,3-triazol-5-yl)methyl benzylcarbamate]
rate of labeling (kobs) HCMV C-A S225M dimer [1]: 0.059 min⁻¹
rate of labeling (kobs) HCMV C-A [2]: 0.093 min⁻¹

Source: article PMC9133232 (Cell chemical biology, 2022)
